Out of some 310,000 compounds screened, about 2,200 (0.71%) showed an effect of 50% or more. Effects have a minus sign here. This is one part of the list.

Chain of human ether-à-go-go-related gene (hERG) potassium channel (Q12809 whole entry, looked up): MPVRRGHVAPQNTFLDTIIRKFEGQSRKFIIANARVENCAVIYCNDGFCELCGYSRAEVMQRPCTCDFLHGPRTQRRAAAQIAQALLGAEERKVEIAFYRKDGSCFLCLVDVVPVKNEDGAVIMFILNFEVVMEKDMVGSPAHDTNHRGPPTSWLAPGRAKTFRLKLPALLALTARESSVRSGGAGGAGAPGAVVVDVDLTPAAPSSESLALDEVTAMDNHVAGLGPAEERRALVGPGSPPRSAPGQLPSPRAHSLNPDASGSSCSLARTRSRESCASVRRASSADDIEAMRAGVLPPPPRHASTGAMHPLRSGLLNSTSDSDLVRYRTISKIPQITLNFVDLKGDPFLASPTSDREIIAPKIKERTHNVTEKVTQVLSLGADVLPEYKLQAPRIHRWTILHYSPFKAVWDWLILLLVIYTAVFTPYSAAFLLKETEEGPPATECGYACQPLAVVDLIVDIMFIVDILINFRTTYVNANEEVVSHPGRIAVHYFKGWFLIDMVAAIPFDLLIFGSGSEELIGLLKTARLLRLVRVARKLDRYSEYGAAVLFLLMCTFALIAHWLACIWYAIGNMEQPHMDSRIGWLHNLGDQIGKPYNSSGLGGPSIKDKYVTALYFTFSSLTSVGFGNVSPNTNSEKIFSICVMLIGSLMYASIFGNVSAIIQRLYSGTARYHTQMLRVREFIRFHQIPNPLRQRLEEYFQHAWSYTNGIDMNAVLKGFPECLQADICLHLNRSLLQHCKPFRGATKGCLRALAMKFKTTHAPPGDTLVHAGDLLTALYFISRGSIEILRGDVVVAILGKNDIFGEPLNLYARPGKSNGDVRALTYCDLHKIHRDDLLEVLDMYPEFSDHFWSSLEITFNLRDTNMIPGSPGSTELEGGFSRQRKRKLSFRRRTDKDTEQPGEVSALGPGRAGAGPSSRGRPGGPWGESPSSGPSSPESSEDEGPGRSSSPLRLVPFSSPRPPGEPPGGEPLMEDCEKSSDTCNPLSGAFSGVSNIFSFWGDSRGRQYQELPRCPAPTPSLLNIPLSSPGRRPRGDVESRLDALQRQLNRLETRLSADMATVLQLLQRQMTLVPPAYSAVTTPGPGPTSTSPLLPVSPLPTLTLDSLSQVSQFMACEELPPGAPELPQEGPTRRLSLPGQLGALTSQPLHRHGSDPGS

The test has as its target human ether-à-go-go-related gene (hERG) potassium channel (human, UniProt Q12809). The test can be described thus: primary screen, population patch clamp on CHO cells stably expressing hERG.
For the compound `CCOC(=O)c1ccc(NC(=O)c2nc[nH]c2C(=O)NCc2ccccc2)cc1`, the “hERG current change (%, negative = inhibition) at 1uM” value worked out at 5.51%.
To `CCOC(=O)c1c(NC(=O)COc2ccc3ccc(=O)oc3c2)sc(C(=O)N(C)C)c1C` belongs 9.71%.
For the compound `O=C(C[n+]1cc(-c2ccc(Cl)cc2)n2c1CCCCC2)c1ccccc1.[Br-]`, the “hERG current change (%, negative = inhibition) at 1uM” value was -2.53%.
`Cn1c(Sc2ccccc2Cl)c(C=O)c2ccccc21`: the “hERG current change (%, negative = inhibition) at 1uM” value was -4.16%.
Turning to `CCOC(=O)N1CCN(CCC(=O)Nc2cccc(Br)c2)CC1.Cl`, the “hERG current change (%, negative = inhibition) at 1uM” value was -0.143%.
With `Nc1c(N(CCC2=CCCCC2)C(=O)c2ccc([N+](=O)[O-])o2)c(=O)[nH]c(=O)n1Cc1ccccc1` the figure was 8.72%.
Turning to `Cc1ccc(S(=O)(=O)N(C)CC(=O)Nc2ccccc2)cc1`, the “hERG current change (%, negative = inhibition) at 1uM” value is -4.62%.
As for `CN(C(=O)CSc1nnc(-c2ccccc2F)o1)c1ccccc1`, the “hERG current change (%, negative = inhibition) at 1uM” value is reported as 10.5%.
Take `CCOc1ccc(NC(=O)C2CCC(C)(C(=O)O)C2(C)C)cc1` (stereo not shown): the “hERG current change (%, negative = inhibition) at 1uM” value is reported as 6.2%.
As to `CCOc1ccc(-n2c(SCC(=O)Nc3ccc(OC)cc3)nc3c(c2=O)SCC3)cc1`, the “hERG current change (%, negative = inhibition) at 1uM” value was found to be 12%.
For `CCC(C(=O)N1CCOCC1)n1c2ccccc2c2nc(=O)cc(C)n21` (stereo not shown), the “hERG current change (%, negative = inhibition) at 1uM” value was determined as 13.4%.
Turning to `CC(C)Oc1cc2oc(=O)c3c(c2cc1Cl)CCC3`, the “hERG current change (%, negative = inhibition) at 1uM” value was 16.9%.
`COc1ccccc1OCC(=O)N1CCCCCCC1`: the “hERG current change (%, negative = inhibition) at 1uM” value is 14.5%.
For the compound `COCCCNC(=O)C1C2C=CC3(CN(Cc4ccc(C)cc4)C(=O)C13)O2` (stereo not shown), the “hERG current change (%, negative = inhibition) at 1uM” value was 10.2%.
With `Cn1c(-c2cc3c(C(F)(F)F)nn(C)c3s2)n[nH]c1=S` the figure was 15.1%; with `Cc1ccccc1NC(=O)Cc1nnc(SCC(=O)NC2CCCC2)n1C`, 13.9%.
With `CCOc1ccc2c(c1)C(c1cccs1)=NNC(c1cccnc1)=N2` the figure was -14.1%.
With `COC(=O)c1sccc1NC(=S)N1CCC(C)CC1` the figure was 11.2%.
In the case of `Cc1cc(C)cc(N(CC(=O)NCc2ccc3c(c2)OCO3)C(=O)CCC(=O)Nc2ccccn2)c1`, the “hERG current change (%, negative = inhibition) at 1uM” value is listed as 1.22%.
Turning to `O=C(O)CSc1c(-c2ccccc2)c2cc(Cl)ccc2[nH]c1=O`, the “hERG current change (%, negative = inhibition) at 1uM” value is on record as 4.15%.
On to `CCc1ccc2[nH]c(=O)c(CN(CCCN3CCOCC3)C(=O)Nc3ccc(Cl)cc3)cc2c1`, for which the “hERG current change (%, negative = inhibition) at 1uM” value is -1.28%.
With `Cl.O=C(CN1CCOCC1)N1CCc2ccccc2C(c2ccccc2)C1` (stereo not shown) the figure was 10.6%; with `Cc1cccc(OC(=O)c2sc3ncn(C)c(=O)c3c2C)c1`, 5.42%; with `CCOc1ccc(NC(=O)CCS(=O)(=O)c2ccc3c(c2)CCCN3C(C)=O)cc1`, 11.5%.
For the compound `CCOC(=O)C1=C(C)NC(C)=C(C(=O)OCC)C1C(=O)OCC(=O)N(C)C1CCS(=O)(=O)C1` (stereo not shown), the “hERG current change (%, negative = inhibition) at 1uM” value was 8.28%.
For `C/C=C(/C)C(=O)OC1c2c(ccc3ccc(=O)oc23)OC(C)(C)C1OC(=O)/C(C)=C\C` (stereo not shown), the “hERG current change (%, negative = inhibition) at 1uM” value came out at 12.6%.
`Nc1nc2ccccc2n1C(=O)CCc1ccccc1`: the “hERG current change (%, negative = inhibition) at 1uM” value was found to be 12.7%.
For `O=Cc1ccc(Oc2cccc(C(F)(F)F)c2)nc1`, the “hERG current change (%, negative = inhibition) at 1uM” value turned out to be 8.47%.
As for `COc1cccc(N2C(=O)CC(N3CCN(C(=O)c4ccco4)CC3)C2=O)c1` (stereo not shown), the “hERG current change (%, negative = inhibition) at 1uM” value worked out at 10.4%.
For the compound `O=[N+]([O-])c1cccc(S(=O)(=O)Nc2ccc(S(=O)(=O)Nc3nccs3)cc2)c1`, the “hERG current change (%, negative = inhibition) at 1uM” value was 13.1%.
As for `CCN1CCN(c2nc3c(C)cccn3c(=O)c2/C=C(\C#N)C(=O)NCCOC)CC1`, the “hERG current change (%, negative = inhibition) at 1uM” value was found to be 10.2%.
Take `CCCCCc1nnc(NC(=O)NS(=O)(=O)c2ccc(C)cc2)s1`: the “hERG current change (%, negative = inhibition) at 1uM” value stood at 6.01%.
In the case of `O=C(Nc1cccc(NC(=O)c2cccs2)c1)c1ccc([N+](=O)[O-])o1`, the “hERG current change (%, negative = inhibition) at 1uM” value came to 8.73%.
As to `CC(NC(=O)C1CCCN1S(=O)(=O)c1cccc2nsnc12)c1ccccc1` (stereo not shown), the “hERG current change (%, negative = inhibition) at 1uM” value worked out at 15.5%.
As to `CC(=O)c1sc(NC(=O)CN2C(=O)CCC2=O)nc1C`, the “hERG current change (%, negative = inhibition) at 1uM” value was 8.98%.
As to `COc1ccc(NC(=O)Nc2ccc(Cc3ccncc3)cc2)cc1OC`, the “hERG current change (%, negative = inhibition) at 1uM” value is listed as 13.5%.
`Cc1cc(C(=O)C(=O)O)c(C)n1-c1ccc(Cl)c(Cl)c1`: the “hERG current change (%, negative = inhibition) at 1uM” value came to 19.9%.
Consider `Cc1ccc(N2C(=O)CC(=O)NC2=O)cc1`, for which the “hERG current change (%, negative = inhibition) at 1uM” value was -7.78%.
For `Cc1cccc(/C=C2/S/C(=N/N=C3\CC4CCC3(C)C4(C)C)NC2=O)c1` (stereo not shown), the “hERG current change (%, negative = inhibition) at 1uM” value came to 0.701%.
For the compound `CC(=O)N1CCc2cc(S(=O)(=O)NCC(=O)NCc3ccc(Cl)cc3)ccc21`, the “hERG current change (%, negative = inhibition) at 1uM” value is on record as 12.3%.
To `COc1cc(/C=C/C(=O)c2ccc3c(c2)OCCO3)cc(OC)c1OC` belongs 10.8%; to `O=C(Cn1cnc2c(cnn2-c2ccc(Cl)cc2)c1=O)N1CCN(c2ccccc2)CC1`, 6.64%; to `O=C(COc1ccccc1)Nc1nnc(C23CC4CC(CC(C4)C2)C3)s1`, 18.9%.
As for `C=CCNC(=O)c1ccc(OC)cc1`, the “hERG current change (%, negative = inhibition) at 1uM” value was 12.6%.
Regarding `N#CC1=C(SCc2ccccc2)NC(=O)CC1c1ccco1` (stereo not shown), the “hERG current change (%, negative = inhibition) at 1uM” value worked out at 11.2%.
To `COc1ccc(CN2CCN(S(=O)(=O)c3ccc(C)cc3)CC2)cc1Br` belongs -1.22%; to `CCC(CC)C(=O)c1c[nH]c(C(=O)N2CCN(c3ccccc3)CC2)c1`, 4.2%.
Turning to `COc1ccc(C2OC(=O)CC2C(=O)NCc2ccccc2Cl)cc1OC` (stereo not shown), the “hERG current change (%, negative = inhibition) at 1uM” value was 5.42%.
To `Cl.O=C(CN1CCC(n2nnc3cc(F)ccc32)CC1)NCc1ccco1` belongs -11.6%; to `CCCCc1nc(NCCN)c(C#N)c2c1CSC(C)(C)C2`, 5.4%; to `O=C1/C(=C/c2ccc(O)cc2)CCc2ccc([N+](=O)[O-])cc21`, 9.86%.
As to `O=C(NCCc1nnc2ccc(NCC3CCCO3)nn12)c1ccccc1` (stereo not shown), the “hERG current change (%, negative = inhibition) at 1uM” value is on record as -7.27%.
Consider `Cn1nccc1C(=O)N1CCN(c2ccccc2Cl)CC1`, for which the “hERG current change (%, negative = inhibition) at 1uM” value worked out at 3.16%.
With `COc1cc(OC)c(C2C(C(=O)N3CCOCC3)=C(C)NC3=C2C(=O)CC(C)(C)C3)cc1OC` (stereo not shown) the figure was 16.6%; with `CN1CN=C(NS(=O)(=O)c2ccc([N+](=O)[O-])cc2)NC1`, -2.68%.
As to `Cn1c(N)c(C(=O)COC(=O)/C=C/c2cccc(Br)c2)c(=O)n(C)c1=O`, the “hERG current change (%, negative = inhibition) at 1uM” value was 9.1%.
For `CCCC(=O)Nc1ccc2nc(C)n(Cc3ccccc3Cl)c(=O)c2c1`, the “hERG current change (%, negative = inhibition) at 1uM” value was 12.5%.
With `COC(=O)C1=C(O)CSC1=Nc1ccc(C)cc1`, the “hERG current change (%, negative = inhibition) at 1uM” value stood at 7.6%.
Turning to `Cn1c(C(=O)N2CCOCC2)cnc1Sc1ncc(C(F)(F)F)cc1Cl`, the “hERG current change (%, negative = inhibition) at 1uM” value came out at 4.99%.
In the case of `CCOC(=O)/C=C1\Nc2ccccc2OC1=O`, the “hERG current change (%, negative = inhibition) at 1uM” value worked out at 10.1%.
To `Cc1cccc(NC(=O)c2cc(-c3cccnc3)nc3c(C)cccc23)n1` belongs 3.78%; to `CCOc1cc(/C=C/c2nc3ccccc3c(=O)[nH]2)cc(Br)c1OC`, 12.9%.
To `CC(=O)N1CCN(C(=O)CCc2c[nH]c3ccccc23)CC1` belongs 16.2%; to `CCS(=O)(=O)n1c(Cc2cccs2)nc2ccccc21`, 13.1%.
With `O=C(Nc1ccc(F)cc1)OCCOc1ccc(Br)cc1` the figure was 15.5%; with `CC(C)C(c1nnnn1Cc1ccc(F)cc1)N1CCC(C(N)=O)CC1.Cl` (stereo not shown), 21.7%.
Regarding `COc1ccc(NC(=S)NC23CN4CN(CN(C4)C2)C3)c(OC)c1`, the “hERG current change (%, negative = inhibition) at 1uM” value is listed as -13.8%.
To `COc1ccc(/C=N/Nc2ccccc2)cc1Cn1nc(C)c([N+](=O)[O-])c1C` belongs 9.15%; to `CCN(CC)c1ccc(NC(=O)CN2CCN(CC(=O)Nc3ccc(OC)cc3)CC2)cc1`, -59.5%.
With `O=C(Nc1cccnc1Cl)C1CCCN(c2ncnc3c2nc2n3CCCCC2)C1` (stereo not shown), the “hERG current change (%, negative = inhibition) at 1uM” value is recorded as -8.45%.
Turning to `Cc1c(C(=O)Nc2ccncc2)sc2nc(-c3ccc(F)cc3)cn12`, the “hERG current change (%, negative = inhibition) at 1uM” value is 2.27%.
With `CCN(CC)CCNC(=O)Cn1c(-c2ccccn2)nc2ccccc21` the figure was -14.6%.
With `CCn1c(=NC(=O)CN2C(=O)CCC2=O)sc2c(OC)ccc(OC)c21` the figure was 14.9%; with `O=C(c1ccc2c(=O)n(-c3ccccc3)c(=O)[nH]c2c1)N1CCN(c2ccc(F)cc2)CC1`, 10.3%.
As for `CCC1CCCCN1C(=O)Nc1ccc(F)cc1` (stereo not shown), the “hERG current change (%, negative = inhibition) at 1uM” value was found to be 21.2%.
On to `COc1ccc(SCC(=O)Nc2ccc(N3CCN(C)CC3)c(F)c2)cc1`, for which the “hERG current change (%, negative = inhibition) at 1uM” value is reported as -11.2%.
With `Clc1ccc(-n2ncc3c(NCC4CCCO4)ncnc32)cc1` (stereo not shown) the figure was 3.75%; with `COCCN(CC(=O)Nc1ccc(F)cc1)S(=O)(=O)c1ccc(S(=O)(=O)N2CCCC2)cc1`, 10.5%; with `O=C1CC(C(=O)N(c2ccccc2)C(C(=O)NC2CCCC2)c2ccncc2)CS1` (stereo not shown), 12.4%.
To `NP(=O)(OCCCc1ccccc1)Oc1ccccc1Cl` (stereo not shown) belongs 8.97%; to `CSc1ccccc1C(=O)NCC(c1ccco1)N(C)C` (stereo not shown), 22.2%; to `Cc1ccc(-c2nn3c(C)nnc3s2)cc1NC(=O)C(C)C`, 14.8%.
With `CC(=O)O[C@]1(C)C(=O)OC/C2=C/CN(C)CCC(OC(=O)[C@@](O)(C(C)O)C[C@H]1C)C2=O` (stereo partly shown) the figure was 1.42%.
On to `NC(=O)N/N=C/c1cc(F)cc(F)c1`, for which the “hERG current change (%, negative = inhibition) at 1uM” value stood at 11.4%.
Turning to `COc1ccc(CCN2C(=S)NC3CC2(C)Oc2ccc([N+](=O)[O-])cc23)cc1OC` (stereo not shown), the “hERG current change (%, negative = inhibition) at 1uM” value is on record as -10.1%.
On to `Cc1cccc(NC(=O)NNC(=O)COc2ccc(Cl)cc2)c1`, for which the “hERG current change (%, negative = inhibition) at 1uM” value is on record as 11.4%.
As to `COc1cccc(-c2sc3ccc(OC)cc3c2C#CC(C)(C)O)c1`, the “hERG current change (%, negative = inhibition) at 1uM” value came out at 13.8%.
In the case of `O=C(Nc1nccs1)c1ccc(COc2ccccc2Cl)o1`, the “hERG current change (%, negative = inhibition) at 1uM” value is 7.69%.

These data come from publication PMC4336329 (PLoS ONE, 2015).
